Results taken from publication PMC6919601, “Identification of Plasmodium dipeptidyl aminopeptidase allosteric inhibitors by high throughput screening” (PLoS ONE, 2019).
The whole screen tested about 110,000 compounds, of which about 230 (0.21%) showed an effect of 50% or more. This is one part of the list.

Each molecule was assayed against DPAP1 (Plasmodium falciparum, UniProt Q8IIJ9) (assay: primary screen, percent inhibition; read by cleavage of a fluorogenic dipeptide substrate; higher = more effect of the substance).
Sequence of DPAP1 (Q8IIJ9 whole entry, looked up): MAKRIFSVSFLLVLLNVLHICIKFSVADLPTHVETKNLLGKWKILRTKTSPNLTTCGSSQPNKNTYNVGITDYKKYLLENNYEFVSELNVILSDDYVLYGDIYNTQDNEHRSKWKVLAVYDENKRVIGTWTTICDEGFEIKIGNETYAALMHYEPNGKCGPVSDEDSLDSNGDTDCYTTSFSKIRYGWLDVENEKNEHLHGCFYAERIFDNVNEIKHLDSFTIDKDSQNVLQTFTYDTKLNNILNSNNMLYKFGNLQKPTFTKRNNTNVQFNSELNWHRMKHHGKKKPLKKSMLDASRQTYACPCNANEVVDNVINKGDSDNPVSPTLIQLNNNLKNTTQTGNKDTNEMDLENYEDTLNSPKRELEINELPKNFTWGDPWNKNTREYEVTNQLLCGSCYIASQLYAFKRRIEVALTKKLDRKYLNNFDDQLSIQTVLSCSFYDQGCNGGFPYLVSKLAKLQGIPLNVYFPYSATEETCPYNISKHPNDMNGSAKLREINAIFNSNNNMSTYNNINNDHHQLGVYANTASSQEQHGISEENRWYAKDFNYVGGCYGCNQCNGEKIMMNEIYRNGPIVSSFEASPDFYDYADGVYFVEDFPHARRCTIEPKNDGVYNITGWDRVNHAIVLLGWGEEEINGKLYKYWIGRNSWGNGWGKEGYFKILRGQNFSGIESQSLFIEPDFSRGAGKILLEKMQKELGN
Parameters: species or system P. falciparum D10 trophozoite lysates; single well
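Further: 30 min substrate incubation versus DMSO and 10 µM JCP410 controls.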

Q: Which “% Inhibition @ 10 uM” value does the source give for `Cc1nnc(N2CCCC(C(=O)NCCc3cccs3)C2)c2nn(-c3ccc(Cl)cc3)c(C)c12` (stereo not drawn) here?
A: 6%

Q: Which “% Inhibition @ 10 uM” value does the source give for `COc1ccc(Cl)cc1NC1=C(Cl)C(=O)N(c2ccccc2)C1=O` here?
A: -1.07%

Q: How did the “% Inhibition @ 10 uM” value turn out when `Cc1ccc(C(=O)NCCCN2CCOCC2)o1` was run?
A: -1.89%

Q: `Nc1cc2c(cc1S(=O)(=O)O)C(=O)c1ccccc1C2=O` was tested. Which “% Inhibition @ 10 uM” value did it give?
A: 0.962%

Q: Which “% Inhibition @ 10 uM” value does the source give for `CCN(CC)CCCn1c(N)c(-c2nc3ccccc3[nH]2)c2nc(C#N)c(C#N)nc21` here?
A: -3.63%

Q: `COc1ccc(/C=C2\N=C(c3cc(F)c(F)cc3Cl)OC2=O)c(OC)c1` was tested. Which “% Inhibition @ 10 uM” value did it give?
A: -4.13%

Q: With `O=C(NCCN1CCCCCC1)c1cc(-c2ccc(Cl)cc2)n[nH]1` as the molecule, how does the “% Inhibition @ 10 uM” value read?
A: 1.41%

Q: For `CC1CCCCC1NC(=O)CCCn1c(=O)[nH]c2ccsc2c1=O` (stereo not drawn), which “% Inhibition @ 10 uM” value is on record?
A: -0.972%

Q: With `CC(C)Cc1nnc2sc(NC(=O)c3ccco3)nn12` as the molecule, how does the “% Inhibition @ 10 uM” value read?
A: -3.51%

Q: How did the “% Inhibition @ 10 uM” value turn out when `Cc1noc(C)c1CCC(=O)N1CCC(c2c[nH]c3ccccc23)(c2c[nH]c3ccccc23)CC1` was run?
A: 5.54%

Q: `CN1CCN(CCCn2cnc3c4cc(Cl)ccc4nc-3c2O)CC1` was tested. Which “% Inhibition @ 10 uM” value did it give?
A: -3.52%

Q: Which “% Inhibition @ 10 uM” value does the source give for `Cc1ccccc1C(=O)Nc1sc2c(c1C(=O)NC1CCS(=O)(=O)C1)CCCC2` (stereo not drawn) here?
A: -2.79%

Q: Which “% Inhibition @ 10 uM” value does the source give for `O=C(CN1C(=O)c2ccccc2S1(=O)=O)Nc1cccc2ccccc12` here?
A: 1.88%

Q: Which “% Inhibition @ 10 uM” value does the source give for `CCCCNS(=O)(=O)c1ccc2nc(-c3cccnc3)cc(C(=O)NCc3ccccc3)c2c1` here?
A: 3.47%

Q: How did the “% Inhibition @ 10 uM” value turn out when `O=C(COc1cccc2cccnc12)N1CCN(C(=O)COc2cccc3cccnc23)CC1` was run?
A: 1.63%

Q: `CC1(c2ccc(Cl)cc2)CC(=O)c2cc(O)ccc2O1` (stereo not drawn) was tested. Which “% Inhibition @ 10 uM” value did it give?
A: 4.79%

Q: For `O=C(O)CCCc1nc2ccccc2[nH]1`, which “% Inhibition @ 10 uM” value is on record?
A: -1.81%

Q: For `COc1cc2c(cc1OC)C(SC)=NC(C)(C)C2`, which “% Inhibition @ 10 uM” value is on record?
A: -0.582%

Q: With `CC(Sc1nc2c(c(=O)n(C)c(=O)n2C)n1Cc1cccc(Cl)c1)C(=O)O` (stereo not drawn) as the molecule, how does the “% Inhibition @ 10 uM” value read?
A: -7.18%

Q: For `C=CCN1C(=O)/C(=C\c2ccccc2O)S/C1=N/c1ccccc1`, which “% Inhibition @ 10 uM” value is on record?
A: 22.4%

Q: For `COc1ccc(CNC(=O)c2cccs2)cc1OC`, which “% Inhibition @ 10 uM” value is on record?
A: -1.46%

Q: With `COc1cc(C)ccc1CO/N=C(\N)c1nonc1N` as the molecule, how does the “% Inhibition @ 10 uM” value read?
A: -4.91%

Q: How did the “% Inhibition @ 10 uM” value turn out when `Cc1cccc(C(=O)n2nc(-c3ccco3)nc2NCc2cccs2)c1` was run?
A: -3.24%

Q: How did the “% Inhibition @ 10 uM” value turn out when `C=CCSc1nc(-c2cccc(OC)c2)ccc1C#N` was run?
A: 2.68%

Q: Which “% Inhibition @ 10 uM” value does the source give for `CCOC(=O)N1CC=C2C(C#N)=C(N)C(C#N)(C#N)C(c3ccc(-c4ccccc4)cc3)C2C1` (stereo not drawn) here?
A: 6.42%

Q: With `NC(=O)/C=C/C(=O)Nc1ccccc1Cl` as the molecule, how does the “% Inhibition @ 10 uM” value read?
A: 0.317%

Q: How did the “% Inhibition @ 10 uM” value turn out when `O=S1(=O)C(/C=N/CCc2ccccc2)=C(O)c2sccc2N1Cc1cccc(F)c1` was run?
A: -4.61%

Q: How did the “% Inhibition @ 10 uM” value turn out when `COc1ccccc1-c1cc(C(F)(F)F)nc(S(=O)(=O)CCCC(=O)NC(C)C)n1` was run?
A: 12.3%

Q: How did the “% Inhibition @ 10 uM” value turn out when `COc1cc(/C=C2/NC(=O)NC2=O)ccc1OCc1cccc(C(=O)O)c1` was run?
A: 4.74%

Q: `O=C(NCc1ccncc1)c1nc(-c2ccc3c(c2)OCO3)no1` was tested. Which “% Inhibition @ 10 uM” value did it give?
A: -6.25%

Q: With `Nc1nnc2nccnn12` as the molecule, how does the “% Inhibition @ 10 uM” value read?
A: -1.11%

Q: `CC1=C(C)CC(C(=O)Nc2nc(-c3ccc(F)cc3)c(C)s2)C(C(=O)O)C1` (stereo not drawn) was tested. Which “% Inhibition @ 10 uM” value did it give?
A: 1.71%

Q: `COc1ccc(-n2nnc3c(=O)n(Cc4cc(C)ccc4C)cnc32)cc1` was tested. Which “% Inhibition @ 10 uM” value did it give?
A: -3.94%

Q: `COc1ccc(-n2c(C)nc(N)c2C(=O)c2ccccc2)cc1` was tested. Which “% Inhibition @ 10 uM” value did it give?
A: 2.7%

Q: For `Cn1c(=O)c(SC(C)(C)C)c(O)c2ccccc21`, which “% Inhibition @ 10 uM” value is on record?
A: 1.67%

Q: How did the “% Inhibition @ 10 uM” value turn out when `COc1ccc(F)c(C2C(C#N)=C(N)Oc3c2c(C)nn3-c2ccccc2)c1` (stereo not drawn) was run?
A: -2.87%

Q: How did the “% Inhibition @ 10 uM” value turn out when `O=C(Nc1ccccc1[N+](=O)[O-])c1c(F)cccc1F` was run?
A: -4.31%

Q: How did the “% Inhibition @ 10 uM” value turn out when `COc1ccc(C(=O)N2CCc3cc(OC)c(OC)cc3C2Cc2ccc(OC)c(OC)c2)cc1` (stereo not drawn) was run?
A: 4.58%

Q: How did the “% Inhibition @ 10 uM” value turn out when `FC(F)(F)c1nc2c(ccc3nsnc32)[nH]1` was run?
A: -8.12%

Q: For `O=C1Nc2cc(Cl)cnc2N2CCCC12` (stereo not drawn), which “% Inhibition @ 10 uM” value is on record?
A: 13.2%

Q: How did the “% Inhibition @ 10 uM” value turn out when `COc1ccc(CNCC2CCC(C(=O)O)CC2)cc1` (stereo not drawn) was run?
A: 1.42%

Q: For `CCc1cc(S(=O)(=O)CC)c(S(=O)(=O)CC)s1`, which “% Inhibition @ 10 uM” value is on record?
A: 1.8%

Q: How did the “% Inhibition @ 10 uM” value turn out when `COc1ccc(/C=C/c2cc(C(=O)O)c3ccccc3n2)cc1` was run?
A: 0.147%

Q: `O=C(c1nc2ccccc2s1)c1conc1C(=O)c1cccs1` was tested. Which “% Inhibition @ 10 uM” value did it give?
A: 4.03%

Q: For `O=c1c2c3n(c4cc(N5CCCCC5)c([N+](=O)[O-])cc4c-2nn1-c1ccccc1)CCC3`, which “% Inhibition @ 10 uM” value is on record?
A: 0.815%

Q: For `CCN1CCCC1CNC(=O)CCNC(=O)c1cc(OC)c(OC)c(OC)c1` (stereo not drawn), which “% Inhibition @ 10 uM” value is on record?
A: -0.519%

Q: With `Nc1c(-c2nc(-c3ccncc3)no2)nnn1-c1ccccc1` as the molecule, how does the “% Inhibition @ 10 uM” value read?
A: -4.46%

Q: `COc1ccccc1N(CC(=O)N1CCC(C)CC1)S(C)(=O)=O` was tested. Which “% Inhibition @ 10 uM” value did it give?
A: -2.8%

Q: For `CCc1ccc(C(C#N)NC(=O)[C@H](CC(C)C)NC(=O)OCc2ccccc2)s1` (stereo partly drawn), which “% Inhibition @ 10 uM” value is on record?
A: -1.41%

Q: For `O=C(O)CCC(=O)Nc1ccc(S(=O)(=O)NC2CCCCC2)cc1`, which “% Inhibition @ 10 uM” value is on record?
A: 1.49%

Q: With `CCOc1ccc(CCNCc2c(C(=O)O)c(C)n(Cc3ccccc3F)c2C)cc1OCC` as the molecule, how does the “% Inhibition @ 10 uM” value read?
A: -5.49%
